Laboratory results from paper doi:10.1101/2024.09.08.611915 (bioRxiv, 2024).

Target: the molecule itself
Assay: mass photometry

Row | Protein | stoichiometry N
1 | VCP K754N (enzyme) not shown | 6
2 | VCP Y755H (enzyme) not shown | 6
